Laboratory results: the supplement of paper PMC11417369
This is one part of the list.

System: PfAP2-HC AP2 domain (GST-tagged)
Assay: gcPBM binding intensity (ln(normalized median fluorescence intensity)); higher = stronger DNA binding
Procedure, shortened: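 Each value is the highest Masliner-normalised natural-log median intensity across replicate spots of either orientation of a probe. The probes were primer-extended double-stranded 36-bp intergenic genomic sequences on an Agilent 4 × 180k array, alongside negative controls, exposed for 1 h to GST-tagged P. falciparum DNA-binding domains expressed in E. coli. Bound protein was picked up with Alexa488 anti-GST antibody and scanned at 488 nm.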

Sequence	gcPBM binding intensity (ln)
AATCAACATTTTTTTTGCTATTTTTTTTTTTAATTA [CACACA_negctrl_site891]	9.64
GACAATATTAAAACATGTACATGCATTTTATGAATA [XGTACX_site553]	9.65
TATAATATAAAATATGCACACATTGGAATGGGAGAA [CACACA_site3746]	10.1
TATTGTAAAGTGTCATTATTACGTTATATTATATAT [CACACA_negctrl_site98]	9.76
TAAAAAAAAGGAAATACATGCATCTACATATATATA [TGCATGCA_site500]	9.52
ATATATTTCATTTTTGTACACACAACGTTGGAGGGT [CACACA_site8999]	9.94
AAAAAAAAAATATATATATATATATAATATATATAT [TGCATGCA_negctrl_site329]	9.43
ATATAGGTAATAATAATACACACGGTGAAATATAGA [CACACA_site4040]	10
AAAAACTAACTGTATTGTACTCTCTTATAAATTCAC [XGTACX_site8967]	9.65
TATAATTTAAAATACACACACATATATATAATATAT [CACACA_site2000]	10.1
TAAATACATTTATATACACACCTATATATATATATA [CACACA_site5137]	9.72
TCCAAATGAAAAAATTGTACATATTTTATCATATAT [XGTACX_site6159]	9.58
ATAAGAAATTTCATACGTACATAAATAAATATATAT [XGTACX_site2932]	9.7
ATATAAGTATACACATGTACATATTTCTTATGTATA [XGTACX_site2854]	9.74
GTATGATGTGAACATTGTACGAATGAATATATCTAA [XGTACX_site3789]	9.55
TATAAAGACACGTACACACACTAAGTATATCCAATA [CACACA_site6855]	10.5
AAAAAATTTATAAAAGCACACAAAATAAAAAAAAAT [CACACA_site8420]	9.78
AAAATGTTAAATATTAAATATGAAACAAAAAAAAAA [GTGCAC_negctrl_site211]	9.64
AATAAAATATAAACATTATATATATATATATATATA [GTGCAC_negctrl_site58]	9.44
ATTTTTTCTTTTTTTTTTCCGTTTTTTTGGACATTT [CACACA_negctrl_site1174]	9.75
TAAAGGAGCCTATGAACACACACATGTACTTATATT [CACACA_site9351]	10.2
AATTGTTTGTTTGGGTGTACATGGTTCTATATAAAT [XGTACX_site7940]	10.3

Sequence	gcPBM binding intensity (ln)
ATAAAAAATAAATAAGGTACAGAACATTTATACATT [XGTACX_site1783]	9.77
AAATTAAACAATAAATGTACATATATATTTGTATAT [XGTACX_site1092]	9.68
AACAAGGTATTAGGGTGTACTATATATATTTATATT [XGTACX_site7776]	9.82
TTTATTACCATATTTTGTACACACATCTTTATCTCA [XGTACX_site6842]	10.5
CTTTTATTGCTCTATATGCACACCTTAATTCTTCAT [CACACA_site2195]	10.1
AATGGGTTAGCACATACACACCAATATATTATAGAT [CACACA_site7444]	9.93
GCAAAATTTCCTAAGGTGCTTTTATTTTACACCGTT [GTGCAC_site9923]	9.78
AAAACCTAAAAGTCTTAAATTTTAAATATACCTACA [GTGCAC_negctrl_site492]	9.5
TAATTTGAACGGTACAGTACTCTTTTTCTTTTTCAT [XGTACX_site5534]	9.62
ATATATTTTTTCAATTGTACGTTTTAATAATATTTA [XGTACX_site2130]	9.66
AATACAACATAATGAAGTACTGTATTTTATATTACT [XGTACX_site4885]	9.75
ATGAAATCTTTAGAATATAGATGATGTTATTTAATT [XGTACX_negctrl_site511]	9.41
TTTCTTTGAATAAATACACACGAGAAATGAAAGTAG [CACACA_site8490]	9.73
ACTCTATACATCTAATGTACATGGAAAAAAAAATTC [XGTACX_site733]	9.48
ATTAAAATGGTATGTGCGCACATAATATATATATGT [GTGCAC_site9572]	10.2
ATATAAATGATATGTACACACATTTATATTTATAAA [CACACA_site7600]	9.73
ACATTGACATGTCGAAGTACTCAAGAAGCATACAAT [XGTACX_site3948]	9.73
TTCTTACATAAAATATCACACACATAAAAAAACAAT [CACACA_site8576]	10.4
GTAATAAGAATTATAGTGCAATGTAATACATTTATA	9.68
TGGAAAATTATTAACACACACATATAAATATATATA [CACACA_site46]	10.2
TATATTATCAAAATGGTGCAATAATTTCTATATTAT [GTGCAC_site9772]	9.49
AAAAGAAATAAGGATACACACTATTGATAAAAGTAG [CACACA_site4309]	9.88

Sequence	gcPBM binding intensity (ln)
TCGTGGGAAAATATTACACACATTTACTATAGTATC [CACACA_site5836]	10.1
TATTACAAATAATACCGTACACAAATGTTTTTTTAT [XGTACX_site7977]	9.59
CTTGGGAAGTATTCAGTGCAAAATATAAGCAGGTCA [GTGCAC_site9758]	9.61
TGGATAATCAAAAATTGTACAAGTGTTGTTATTGGT [XGTACX_site8010]	9.69
ACCGGTGGAACGTTTTGTACATATATAATAATATAT [XGTACX_site2143]	9.73
ATATATATATTGAAAAGTACATATATATATATATTA [XGTACX_site1560]	9.47
TTTTTTTTTATATATACACACAATAAATAAATATAA [CACACA_site2954]	9.43
TACATAAATACATACATACACACATATATATATATA [CACACA_site2105]	9.87
GGTTAAAAAAAGCATACACACTATCCTCTTTGCTCT [CACACA_site7246]	10.1
CTTTTTTATTTTTCAACACACATAATAAATTTCTAT [CACACA_site1037]	9.82
GAACCTTTAAAATACACACCCAAATCCTTTGAAATA [CACACA_site3630]	9.76
ATATTTTACAAATGCACACATAATTTTTTTTTTTTT [CACACA_site2763]	9.77
ATATAAAAAATATAAGGTACACATATATGTAGATAT [XGTACX_site6792]	9.97
TAAATAAAATACAAATGTACATAAATAATAAATATA [XGTACX_site1813]	9.81
AATTATTTTAAATATTGTACTATTACAGAATGGTGT [XGTACX_site5693]	9.62
AGCAGACACCAACACACACACATATATATATATATA [CACACA_site337]	10.5
TATATATTAATCAAAGTGCAATAATAAAATAAAAGT [GTGCAC_site9490]	9.87
TAACTTTATTTTCCTGTACACACATTTGACATATTA [CACACA_site9116]	9.97
TCAAATTACGTAAGAACATGCGATATAAGAAATACG [TGCATGCA_site691]	9.7
CTCTAATTAATATTTGTACACACATATTTAACCTAC [CACACA_site9043]	9.96
TTTATACAAAAGAACAGTACAATAAAGGATTTATGA [XGTACX_site811]	9.57
TAAATTTGTGTTATTAAAAAAATGGTTTAAAAATGT [XGTACX_negctrl_site352]	9.51

Sequence	gcPBM binding intensity (ln)
TCTTTTTCATCTTTCAACAAAAAATAATATATGTGT [CACACA_negctrl_site866]	9.73
AGAATAAATATGCACACATGCATATATTTTTACACT [TGCATGCA_site893]	9.93
TTAGTCCATATTTTTGCACACCATTTTTTTTTTTTT [CACACA_site3927]	10.2
ATCCTTAATATGAACACACAAATATATTGCACATAT [CACACA_site6230]	9.98
AAATATACAATATTCACACAAAAAAATACATTACAA [CACACA_site5004]	9.74
ATATATTTATATTGTACACACATTTATGCATATATA [CACACA_site7502]	9.96
TTTCTTACAAAAGCTAGAGTTTTTTTTTTTTTTTTT [XGTACX_negctrl_site341]	9.39
TGTTTTTATAAAATAAATAAATATATATATATATAT [CACACA_negctrl_site502]	9.34
TTTATTATTTTAACGTGTACAAGGTATATAATATTC [XGTACX_site5241]	9.59
TAGGTAAATGCAAATTGGTTTAAATCAAAATATAAA [XGTACX_negctrl_site250]	9.55
GTATCAAAAGAATACACACACACATACAGATATATA [CACACA_site5975]	11.2
TGATATTATATATATACACACATGTATGTATTTATA [CACACA_site4874]	9.95
AAAAATAAAAAATATAAAAATATAAAAATATAAAAA [XGTACX_negctrl_site51]	9.55
TTATATTTTCTCCGCGTGCACATATGTATACTATAC	9.94
TTTTTGTTTTTTTGTTTATCGTTCGTGACTACATGA [TGCATGCA_negctrl_site124]	9.49
GAAATCTAAATAGAAACACACATATATATATATATA [CACACA_site3863]	9.53
TAGGGTAGTTATAATTGTACTTTTCTCCAAAAAAAA [XGTACX_site7321]	9.36
TAGGTACATAAATTGGTGCAAAGTGTACATATATAT	9.91
AAAATACATAAACGTTCACACATTGAAGATCACAAG [CACACA_site5347]	9.86
AATTTTAATTATATCACACATAATATATACCAAAAA [CACACA_site6011]	9.66
TTTAATACTTTTTTCTGTACACACTTGATTTACTAT [XGTACX_site5925]	10
TACATATTTTTATATACACACAATAATTACTATAAA [CACACA_site6879]	9.66
